# PubChem BioAssay AID2147 (National Center for Advancing Translational Sciences (NCATS), 2009)
# Hit rate of the full screen: of about 230,000 compounds, about 3,600 (1.6%) were called active. The inconclusive results got no clear call from the source; some entries with a clear call stand among them for comparison. Calls follow the shape of the dose curve; as a rule, active = well fitted inhibition curve with a large enough effect (not every such curve was filed as active); inconclusive = small, poorly fitted or top-dose-only effect, or another doubt; inactive = no such curve, though single readings can be large or run the other way. Where the call is inconclusive, the potency comes from a doubtful curve fit.
# Target: Lysine-specific demethylase 4E (Homo sapiens) (UniProt B2RXH2)
# UniProt B2RXH2, sequence (B2RXH2 whole entry, looked up, the tested form may be a part): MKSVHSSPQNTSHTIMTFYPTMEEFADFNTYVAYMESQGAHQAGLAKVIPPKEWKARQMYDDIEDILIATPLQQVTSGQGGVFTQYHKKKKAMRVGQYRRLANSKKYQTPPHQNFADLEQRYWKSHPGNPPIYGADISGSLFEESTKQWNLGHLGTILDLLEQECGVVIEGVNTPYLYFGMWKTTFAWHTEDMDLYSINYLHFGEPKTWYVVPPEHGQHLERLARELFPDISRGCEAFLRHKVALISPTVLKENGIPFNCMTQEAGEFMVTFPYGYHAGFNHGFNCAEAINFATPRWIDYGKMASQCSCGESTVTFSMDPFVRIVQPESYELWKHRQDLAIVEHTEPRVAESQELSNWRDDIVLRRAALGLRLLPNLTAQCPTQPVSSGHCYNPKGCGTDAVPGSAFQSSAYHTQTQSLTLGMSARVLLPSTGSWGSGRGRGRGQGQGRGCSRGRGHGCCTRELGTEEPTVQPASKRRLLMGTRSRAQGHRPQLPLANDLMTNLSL
# Assay: qHTS Assay for Inhibitors of Human Jumonji Domain Containing 2E (JMJD2E)
# Settings: JMJD2E catalytic domain, FDH-coupled NADH fluorescence (FDH is formaldehyde dehydrogenase); series mostly up to 57.1 µM
# Also: nearly all actives have a fitted effect of over 50% in size.
# Potency is read from the fitted curve at half-maximal effect; tags tell the direction and shape of the fitted curve.
row,Compound,Potency
1,Cc1c([N+](=O)[O-])c(N)nn1C,inactive
2,Cc1nc(-c2ccccn2)sc1C(=O)Nc1ccc(Cl)c(Cl)c1,"inconclusive: 39.8 µM [inhibitor, single point]"
3,O=C(Nc1nnc(C2CC2)o1)c1ccc(S(=O)(=O)N2CCc3ccccc3C2)cc1,"inconclusive: 39.8 µM [inhibitor, single point]"
4,CCCOc1ccc(OCCOCCNCc2ccccc2)cc1,"inconclusive: 39.8 µM [inhibitor, single point]"
5,Cc1cc(N2CCN(C(=O)c3ccco3)CC2)c2ccccc2n1,inactive
6,Cc1nn(C)cc1/C=N/NC(=O)Cn1cncn1,inactive
7,OCC1O[C@@H](OC2C(O)C(CO)O[C@@]2(CO)O[C@@H]2OC(CO)C(O)C(O)C2O)C(O)C(O)C1O (stereo partly specified),inactive
8,COc1ccc(C2CC(=O)Oc3c(C(CCN4CCCC(C)C4)c4ccc(N(C)C)cc4)c(OC)cc(OC)c32)cc1 (stereo unspecified),inactive
9,Cc1cc(C)c(C)c(C(=O)CSc2nnc(-c3ccc4[nH]c(C)c(C)c4c3)o2)c1C,"inconclusive: 25.1 µM [inhibitor, single point]"
10,Cc1csc2nc(CNC(=O)CCC(=O)O)cn12,inactive
11,COCC(=O)Nc1ccc(S(=O)(=O)Nc2ncccn2)cc1,inactive
12,COCCCNC(=O)CC(NS(=O)(=O)c1ccc(C)cc1)c1ccc(OC)cc1 (stereo unspecified),inactive
13,O=c1[nH]c(-c2cccs2)nc2ccccc12,"inconclusive: 39.8 µM [inhibitor, single point]"
14,COc1cccc(NC(=O)CCN2CCN(c3ccccc3F)CC2)c1,inactive
15,COc1ccccc1C1CCCN1Cc1nc(-c2ccc(C)s2)oc1C (stereo unspecified),"inconclusive: 28.2 µM [inhibitor, partial curve]"
16,Cc1ccc2nc(-c3cccnc3)c(Nc3ccccc3C)n2c1,"inconclusive: 39.8 µM [inhibitor, single point]"
17,Cc1ccccc1OCC(=O)Nc1nnc(-c2ccncc2)s1,"inconclusive: 14.1 µM [inhibitor, partial curve]"
18,CCOC1(OCC)N=C(N)C2(C#N)C(c3cccc(OC)c3OC)C12C#N (stereo unspecified),"inconclusive: 31.6 µM [inhibitor, partial curve]"
19,COc1cc(OC)c(OC)cc1CN1CCCC(C(=O)c2ccc3c(c2)OCO3)C1 (stereo unspecified),"inconclusive: 20 µM [inhibitor, partial curve]"
20,COc1cccc(C(=O)Nc2sc(C(C)C)cc2C(N)=O)c1OC,"inconclusive: 28.2 µM [inhibitor, single point]"
21,CCOC(=O)c1nc(N)c(C(=O)OCC)[nH]1,"inconclusive: 22.4 µM [inhibitor, partial curve]"
22,CCCSc1nnc2nc(C)cc(C)n12,"inconclusive: 31.6 µM [inhibitor, single point]"
23,CCCCn1c(SCC(=O)Nc2ccc(OC)cc2)nc2ccc(N3CCOCC3)cc2c1=O,"inconclusive: 25.1 µM [inhibitor, partial curve]"

row,Compound,Potency
1,CCOc1cccc(C(=O)Nc2nnc(-c3ccco3)s2)c1,"inconclusive: 22.4 µM [inhibitor, partial curve]"
2,O=C(Cn1cnc([N+](=O)[O-])n1)N/N=C/c1ccccc1O,active: 25.1 µM
3,COc1ccc(NC(=O)c2ccc(Cl)c(S(=O)(=O)N3CCc4ccccc4C3)c2)cn1,"inconclusive: 39.8 µM [inhibitor, single point]"
4,Cn1c(NC(=O)c2ccccc2NC(=O)C(C)(C)C)nc2ccccc21,"inconclusive: 39.8 µM [inhibitor, single point]"
5,CC(=O)N1CCN(c2ccc(C(N)=O)cc2[N+](=O)[O-])CC1,inactive
6,Cc1ccc(-c2csc3ncnc(N4CCc5ccccc5C4)c23)cc1,"inconclusive: 35.5 µM [inhibitor, single point]"
7,O=C(NNC(=O)C1[C@H]2CCCC[C@@H]12)c1ccc(=O)oc1 (stereo partly specified),"inconclusive: 20 µM [inhibitor, partial curve]"
8,COc1ccc(-n2nc([N+](=O)[O-])c(=NCCc3cccc(C)c3)n2O)cc1,inactive
9,COc1cc2cc(CN(CCCN3CCOCC3)C(=O)Nc3ccccc3F)c(=O)[nH]c2cc1OC,"inconclusive: 31.6 µM [inhibitor, partial curve]"
10,COC(=O)COc1ccc(S(=O)(=O)Nc2ccc3c(c2)OCO3)cc1,"inconclusive: 35.5 µM [inhibitor, single point]"
11,COc1ccccc1NC(=O)c1sc2ncn(Cc3ccc(C)cc3)c(=O)c2c1C,"inconclusive: 8.91 µM [inhibitor, full curve]"
12,O=C(NCCN1CCN(c2ccccc2)CC1)C1CCN(S(=O)(=O)c2cccc3nonc23)CC1,inactive
13,Nc1cc2c(cc1[N+](=O)[O-])OCCO2,inactive
14,Cc1cccc(C2(c3cccc(C)c3)CC2C(=O)Nc2ccc([N+](=O)[O-])cc2O)c1 (stereo unspecified),inactive
15,c1ccc2c3c(cc(N4CCOCC4)c2c1)OC1(N2CCOCC2)CCCCC1O3 (stereo unspecified),"inconclusive: 10 µM [inhibitor, partial curve]"
16,COP(=O)(OC)c1nc(-c2cccc3ccccc23)oc1NCc1ccccc1,"inconclusive: 31.6 µM [inhibitor, partial curve]"
17,O=C(COc1ccccc1)Nc1ccc2c(c1)C(=O)N(CC1CCCO1)C2=O (stereo unspecified),"inconclusive: 28.2 µM [inhibitor, single point]"
18,O=c1c2ccccc2nc2c3ccccc3c(NCc3ccccn3)nn12,"inconclusive: 12.6 µM [inhibitor, partial curve]"
19,Cc1nn2cc(-c3ccc(-c4ccccc4)cc3)nc2s1,"inconclusive: 28.2 µM [inhibitor, single point]"
20,O=C(c1cc2cc([N+](=O)[O-])ccc2oc1=O)n1cccn1,inactive
21,COc1ccccc1-c1cc(C(F)(F)F)nc(N2CCCC2)n1,"inconclusive: 31.6 µM [inhibitor, partial curve]"
22,c1ccc(-c2cc(-c3ccncc3)nc3ccc4ccccc4c23)cc1,"inconclusive: 25.1 µM [inhibitor, partial curve]"
23,CC(NC(=O)c1ccccc1O)c1ccccc1 (stereo unspecified),"inconclusive: 28.2 µM [inhibitor, partial curve]"
